We go through seven molecules from publication PMC7589982.

Chains of the proteins cited; added tags and fusions are not shown. Lines headed by an entry give the natural chain unless they say otherwise; changes in a name come on top. Residues count along the entry.
UniProt P03126: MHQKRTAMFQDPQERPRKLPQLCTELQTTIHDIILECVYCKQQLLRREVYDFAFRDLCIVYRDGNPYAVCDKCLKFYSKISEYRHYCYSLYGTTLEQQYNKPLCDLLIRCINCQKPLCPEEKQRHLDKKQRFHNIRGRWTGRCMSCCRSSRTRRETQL
UniProt P17948: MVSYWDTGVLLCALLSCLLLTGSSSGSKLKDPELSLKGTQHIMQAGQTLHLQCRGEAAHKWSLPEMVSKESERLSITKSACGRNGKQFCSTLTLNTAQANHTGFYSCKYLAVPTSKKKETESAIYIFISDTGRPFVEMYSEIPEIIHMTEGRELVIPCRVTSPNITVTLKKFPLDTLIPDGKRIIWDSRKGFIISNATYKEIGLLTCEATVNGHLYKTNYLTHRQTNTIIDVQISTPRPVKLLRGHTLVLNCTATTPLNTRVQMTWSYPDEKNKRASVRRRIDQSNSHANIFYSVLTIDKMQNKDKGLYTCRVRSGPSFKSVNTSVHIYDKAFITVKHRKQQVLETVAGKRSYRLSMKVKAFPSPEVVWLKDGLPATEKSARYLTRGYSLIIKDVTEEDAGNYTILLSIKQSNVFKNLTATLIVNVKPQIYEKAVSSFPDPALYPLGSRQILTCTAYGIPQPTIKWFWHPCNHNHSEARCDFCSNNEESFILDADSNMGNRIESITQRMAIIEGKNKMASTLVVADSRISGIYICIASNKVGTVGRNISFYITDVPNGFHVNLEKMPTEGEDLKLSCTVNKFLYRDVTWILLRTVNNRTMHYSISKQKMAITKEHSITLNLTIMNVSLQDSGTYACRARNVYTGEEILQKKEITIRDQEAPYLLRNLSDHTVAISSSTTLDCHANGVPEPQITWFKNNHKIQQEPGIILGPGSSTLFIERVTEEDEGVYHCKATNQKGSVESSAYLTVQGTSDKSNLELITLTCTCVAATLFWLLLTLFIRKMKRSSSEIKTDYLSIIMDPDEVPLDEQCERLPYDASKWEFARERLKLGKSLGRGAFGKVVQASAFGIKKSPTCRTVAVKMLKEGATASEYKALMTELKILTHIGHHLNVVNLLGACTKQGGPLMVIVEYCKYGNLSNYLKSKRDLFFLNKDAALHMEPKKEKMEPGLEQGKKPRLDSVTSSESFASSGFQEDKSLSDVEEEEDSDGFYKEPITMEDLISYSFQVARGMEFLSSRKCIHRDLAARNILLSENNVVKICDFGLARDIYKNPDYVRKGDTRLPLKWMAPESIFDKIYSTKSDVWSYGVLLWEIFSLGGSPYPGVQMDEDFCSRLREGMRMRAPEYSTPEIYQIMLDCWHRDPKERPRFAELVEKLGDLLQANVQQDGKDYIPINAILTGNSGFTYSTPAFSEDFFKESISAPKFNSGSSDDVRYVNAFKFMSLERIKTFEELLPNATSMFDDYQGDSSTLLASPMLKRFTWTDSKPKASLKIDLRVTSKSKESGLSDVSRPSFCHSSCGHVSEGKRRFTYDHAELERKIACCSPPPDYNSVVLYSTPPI
UniProt P35968, residues 20-1356: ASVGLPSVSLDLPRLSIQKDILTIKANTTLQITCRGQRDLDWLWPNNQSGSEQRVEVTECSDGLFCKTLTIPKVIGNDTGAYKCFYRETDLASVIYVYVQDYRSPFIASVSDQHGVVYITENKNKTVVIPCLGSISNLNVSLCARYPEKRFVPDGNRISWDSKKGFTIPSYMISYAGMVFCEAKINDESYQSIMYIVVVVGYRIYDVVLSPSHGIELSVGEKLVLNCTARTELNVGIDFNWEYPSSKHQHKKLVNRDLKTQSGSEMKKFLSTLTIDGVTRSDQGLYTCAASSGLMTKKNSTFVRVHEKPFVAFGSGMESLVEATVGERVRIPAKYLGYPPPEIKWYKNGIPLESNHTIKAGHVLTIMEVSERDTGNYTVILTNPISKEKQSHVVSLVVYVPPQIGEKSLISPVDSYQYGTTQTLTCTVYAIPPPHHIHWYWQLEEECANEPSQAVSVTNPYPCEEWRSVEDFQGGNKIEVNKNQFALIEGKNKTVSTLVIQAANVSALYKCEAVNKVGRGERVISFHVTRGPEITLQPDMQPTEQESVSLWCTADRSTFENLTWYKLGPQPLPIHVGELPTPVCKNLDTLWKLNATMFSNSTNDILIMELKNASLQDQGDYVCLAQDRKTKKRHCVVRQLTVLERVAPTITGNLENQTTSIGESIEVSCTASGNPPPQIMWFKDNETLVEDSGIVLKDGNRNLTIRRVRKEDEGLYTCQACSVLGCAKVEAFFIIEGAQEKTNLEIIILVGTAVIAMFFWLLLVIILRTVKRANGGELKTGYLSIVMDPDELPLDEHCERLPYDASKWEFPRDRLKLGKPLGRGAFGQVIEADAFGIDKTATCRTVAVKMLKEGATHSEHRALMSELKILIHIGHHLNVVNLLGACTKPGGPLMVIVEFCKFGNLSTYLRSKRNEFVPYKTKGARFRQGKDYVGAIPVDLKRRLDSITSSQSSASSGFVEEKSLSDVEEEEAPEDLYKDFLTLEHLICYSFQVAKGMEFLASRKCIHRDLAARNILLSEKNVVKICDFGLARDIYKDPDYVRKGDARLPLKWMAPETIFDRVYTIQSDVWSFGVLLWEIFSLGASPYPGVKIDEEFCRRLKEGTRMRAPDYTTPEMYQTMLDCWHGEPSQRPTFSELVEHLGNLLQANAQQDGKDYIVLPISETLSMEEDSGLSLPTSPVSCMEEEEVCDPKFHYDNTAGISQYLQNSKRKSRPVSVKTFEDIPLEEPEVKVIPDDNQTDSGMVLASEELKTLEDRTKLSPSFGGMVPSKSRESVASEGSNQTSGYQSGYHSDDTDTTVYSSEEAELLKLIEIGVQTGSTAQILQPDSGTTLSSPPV

Like-named read-outs stand apart in the source and are kept apart here. These are yes or no findings as the source states them, for the method shown. For some of these results: In cells and extracts the contact can be indirect. Some results given as binding are weak or reduced against the parent protein; the word gives no strength.

Experiment [1] concerns the target endogenous HPV16 E6 (human papillomavirus 16) (UniProt P03126). Kind of experiment: co-IP; endogenous proteins in whole cell lysates of HEK293T cells; IP with an antibody as indicated in the figure, rabbit IgG as IP-negative control; immunoblot. In general terms: In western blotting, separated proteins are transferred to a membrane and probed.
For experiment [2], the target named is Flag-HPV16 E6 (pcDNA3.1/Flag-HPV16 E6) (human papillomavirus 16) (UniProt P03126). Nature of the experiment: co-IP; co-transfected cells; total cell extracts incubated with anti-Flag antibody, precipitated with protein A-agarose; immunoblot with anti-HPV16 E6, anti-VEGFR-1, anti-VEGFR-2 or anti-IRF-1.
The target of experiment [3] is HPV16 E6 oncoprotein, full-length, LexA bait (pGilda/LexA) (human papillomavirus 16) (UniProt P03126). Nature of the experiment: two-hybrid; full-length HPV16 E6 in pGilda/LexA as bait; growth on medium lacking leucine, blue colonies, beta-galactosidase activity (unit) with ONPG.
Experiment [4] addresses Flag-HPV16 E6 (pcDNA3.1/Flag-HPV16 E6) (human papillomavirus 16) (UniProt P03126). Kind of experiment: co-IP; co-transfected cells; total cell extracts incubated with anti-Flag antibody, precipitated with protein A-agarose; immunoblot with anti-HPV16 E6, anti-VEGFR-1, anti-VEGFR-2 or anti-IRF-1. This is another data set of the same source.
For experiment [5], the target named is endogenous HPV16 E6 (human papillomavirus 16) (UniProt P03126). Nature of the experiment: co-IP; endogenous proteins in whole cell lysates of HEK293T cells; IP with an antibody as indicated in the figure, rabbit IgG as IP-negative control; immunoblot. This is another data set of the same source.

Turning to “endogenous VEGFR-1 (from UniProt P17948 27-1338) (receptor)”, in experiment [1], the binding result is recorded as “no binding”.

As to “endogenous VEGFR-2 (from UniProt P35968 20-1356) (receptor)”, the binding entry in experiment [1] is on record as “binds”.

Consider “VEGFR-1 (pcDNA3.1/VEGFR-1) (from UniProt P17948 27-1338) (receptor)”, for which, in experiment [2], the binding result is listed as “no binding”.

As for “VEGFR-2 (pcDNA3.1/VEGFR-2) (from UniProt P35968 20-1356) (receptor)”, the binding result in experiment [2] is listed as “binds”.

On to “VEGFR-1, yeast two-hybrid partner (from UniProt P17948 1-1338) (receptor)”, for which the binding entry in experiment [3] was “no binding”.

B1: IRF-1 (pcDNA3.1/IRF-1) (protein, UniProt P10914 1-325)
chain: MPITRMRMRPWLEMQINSNQIPGLIWINKEEMIFQIPWKHAAKHGWDINKDACLFRSWAIHTGRYKAGEKEPDPKTWKANFRCAMNSLPDIEEVKDQSRNKGSSAVRVYRMLPPLTKNQRKERKSKSSRDAKSKAKRKSCGDSSPDTFSDGLSSSTLPDDHSSYTVPGYMQDLEVEQALTPALSPCAVSSTLPDWHIPVEVVPDSTSDLYNFQVSPMPSTSEATTDEDEEGKLPEDIMKLLEQSEWQPTNVDGKGYLLNEPGVQPTSVYGDFSCKEEPEIDSPGGDIGLSLQRVFTDLKNMDATWLDSLLTPVRLPSIQAIPCAP
Consider B1, for which, in experiment [4], the binding entry is reported as “binds”.

B2: endogenous IRF-1 (protein, UniProt P10914 1-325)
chain: MPITRMRMRPWLEMQINSNQIPGLIWINKEEMIFQIPWKHAAKHGWDINKDACLFRSWAIHTGRYKAGEKEPDPKTWKANFRCAMNSLPDIEEVKDQSRNKGSSAVRVYRMLPPLTKNQRKERKSKSSRDAKSKAKRKSCGDSSPDTFSDGLSSSTLPDDHSSYTVPGYMQDLEVEQALTPALSPCAVSSTLPDWHIPVEVVPDSTSDLYNFQVSPMPSTSEATTDEDEEGKLPEDIMKLLEQSEWQPTNVDGKGYLLNEPGVQPTSVYGDFSCKEEPEIDSPGGDIGLSLQRVFTDLKNMDATWLDSLLTPVRLPSIQAIPCAP
Consider B2, for which the binding result in experiment [5] is on record as “binds”.
